This passage reports viability index results from the supplement of paper PMC4723716.

Molecules are shown by their SMILES. ± gives the uncertainty stated by the source. The full ranking holds about 9,900 compounds; the median of “viability index relative to DMSO control” is about 1, and the lowest 2% start at about 0.85. This is one part of the list.

The subject of this experiment is Plasmodium falciparum NF54 stage V gametocytes. As to the kind of experiment: viability index relative to DMSO control (fraction); higher = less gametocyte killing. Particulars: 2.5 µM, library set: Broad Institute DOS, incubation time: 72 h. The method, boiled down:
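Stage V gametocytes of P. falciparum NF54 were held in serum-free screening medium at 0.75% gametocytemia and 1.25% hematocrit, 10 µl per well of a 1,536-well plate, and exposed to compound at 2.5 µM for 72 hr at 37°C under low oxygen. A 3 µl mix of 2.5 µM MitoTracker Red CMXRos with 0.13% saponin was then added for one to two hours, after which one field per well was imaged and red particles of 20–70 µm2 were counted. The viability index equals this count divided by the plate mean from wells given solvent alone.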
For `O=C(Nc1cc(F)ccc1F)N[C@@H]1CC[C@H](CCn2cc(C3CCCCC3)nn2)O[C@@H]1CO`, the viability index was 0.914 ± 0.036.

Molecule `C[C@H]1C/C=C/C[C@H](c2cccc(Cl)c2)NC(=O)[C@@H](Cc2ccccc2)N(C)C(=O)c2ccccc2O1.C[C@H]1C/C=C\C[C@H](c2cccc(Cl)c2)NC(=O)[C@@H](Cc2ccccc2)N(C)C(=O)c2ccccc2O1` yielded a viability index of 1.02 ± 0.066.

On to `COc1ccc2c3c([nH]c2c1)[C@@H](CO)NC[C@]31CN(Cc2cc(F)ccc2F)C1`, for which the viability index worked out at 1.03 ± 0.11.

On to `CCN1[C@H](C(=O)NC2Cc3ccccc3C2)[C@@H](CO)[C@@H]2Cn3c(ccc(C4=CCCC4)c3=O)[C@@H]21`, for which the viability index came out at 0.993 ± 0.073.

Molecule `C[C@H]1CN([C@@H](C)CO)C(=O)Cc2cc(NC(=O)CCCCCC(=O)Nc3ccccc3N)ccc2O[C@@H]1CN(C)S(=O)(=O)c1cccs1` registered a viability index of 0.88 ± 0.16.

With `Cc1noc(C)c1NC(=O)Nc1ccc2c(c1)C(=O)N(C)[C@H]1CC[C@H](CC(=O)N[C@H]3CCN(Cc4ccccc4)C3)O[C@@H]1CO2`, the viability index was 1.07 ± 0.025.

`C[C@H]1CN([C@@H](C)CO)C(=O)c2c(c3ccccc3n2C)-c2ccccc2CO[C@H]1CN(C)S(=O)(=O)c1ccccc1C#N` showed a viability index of 1.04 ± 0.1.

In turn, `COc1ccc2c3c([nH]c2c1)[C@H](CO)N(C[C@]31CCN(Cc2nccs2)CC1)S(=O)(=O)c1ccc(C)cc1` returned a viability index of 1.03 ± 0.1.

Regarding `COc1ccccc1CNC(=O)C[C@H]1CC[C@@H]2[C@@H](COc3ccc(NC(C)=O)cc3C(=O)N2C)O1`, the viability index was determined as 0.957 ± 0.015.

`COc1ccccc1CN1[C@@H]2CNC[C@H]1[C@H]2c1ccc(/C=C/c2ccccc2)cc1`: the viability index came to 1.02 ± 0.016.

As to `CC(C)(C)[S@@](=O)N1Cc2cc(C(=O)NCC(F)(F)F)nc(-c3cccc(-c4cccc(F)c4)c3)c2[C@H]1CCO`, the viability index was found to be 1.01 ± 0.032.

The molecule `CO[C@H](CN(C)C(=O)c1ccccc1F)[C@@H](C)CN([C@@H](C)CO)S(=O)(=O)c1ccc(F)cc1` gave a viability index of 0.952 ± 0.063.

In turn, `COc1ccc2c3c([nH]c2c1)[C@H](CO)N(C)C[C@]31CN(C1)C(=O)C1CC1` yielded a viability index of 0.863 ± 0.01.

`O=C(N[C@H]1C=C[C@H](CC(=O)N2CCC(Cc3ccccc3)CC2)O[C@@H]1CO)c1cnccn1` gave a viability index of 1.09 ± 0.11.

In turn, `C/C=C/c1ccc2n(c1=O)C[C@@H]1[C@@H](CO)[C@H](C(=O)Nc3ccc(-c4ccccc4)cc3)[C@H]2N1C(=O)CC.C/C=C\c1ccc2n(c1=O)C[C@@H]1[C@@H](CO)[C@H](C(=O)Nc3ccc(-c4ccccc4)cc3)[C@H]2N1C(=O)CC` displayed a viability index of 1.12 ± 0.12.

As to `COc1ccc2c3c([C@@H](CO)N(C[C@]33CCN(C)CC3)S(=O)(=O)c3ccc(C)cc3)n(C)c2c1`, the viability index is 1.01 ± 0.031.

Molecule `COCC(=O)N1[C@@H](C#N)[C@@H](c2ccccc2-c2cccc(C)c2)[C@@H]1CO` came in with a viability index of 1.07 ± 0.14.

In turn, `CC(C)NC(=O)N[C@@H]1CC[C@@H](CC(=O)NCCCN(C)C)O[C@@H]1CO` came in with a viability index of 0.941 ± 0.056.

`CCCNC(=O)N1CC(=O)N2[C@H](CO)[C@H](c3ccc(C#Cc4cccc(OC)c4)cc3)[C@@H]2C1` gave a viability index of 1.02 ± 0.062.

The molecule `O=C(C1CCOCC1)N1CC2(C1)[C@H](c1ccccc1)[C@H](CO)N2Cc1ccccc1F` displayed a viability index of 1.06 ± 0.063.

Molecule `C[C@@H]1CN([C@@H](C)CO)C(=O)c2cccc(NC(=O)c3nc4ccccc4s3)c2O[C@H]1CN(C)C(=O)Nc1ccc2c(c1)OCO2` displayed a viability index of 0.878 ± 0.11.

In the case of `CN1C(=O)c2cc(NC(=O)c3ccc(F)c(F)c3)ccc2OC[C@H]2O[C@@H](CC(=O)N3CCCCC3)CC[C@H]21`, the viability index was determined as 1.1 ± 0.0047.

In turn, `COc1cccc(-c2ccc3c(c2)[C@H]2[C@H](CCN2S(=O)(=O)C2=NC(C)C=N2)[C@H](CO)N3C)c1` (stereo partly drawn) came in with a viability index of 0.9928 ± 0.0067.

Molecule `O=C(C[C@H]1CC[C@H]2[C@@H](COC[C@@H](O)CN2Cc2cccc(Cl)c2)O1)NCc1cccc(F)c1` came in with a viability index of 1.12 ± 0.059.

Turning to `O=C(CN1CCOCC1)N(CC1CCC1)C[C@H]1N[C@H](CO)[C@@H]1c1ccccc1`, the viability index came out at 0.981 ± 0.064.

With `COc1ccc(S(=O)(=O)Nc2ccc3c(c2)C(=O)N([C@@H](C)CO)C[C@@H](C)[C@H](CN(C)S(=O)(=O)c2ccc(Cl)cc2)OCCCC[C@@H](C)O3)cc1`, the viability index was 1.062 ± 0.0066.

The molecule `C[C@H]1CN([C@@H](C)CO)C(=O)c2cccc(N(C)C)c2O[C@@H]1CN(C)Cc1ccncc1` had a viability index of 1.03 ± 0.057.

Consider `C/C=C/c1ccc([C@H]2[C@@H](CO)N(C(=O)C3CC3)[C@@H]2CNC(=O)NC(C)C)cc1`, for which the viability index is 1.04 ± 0.06.

Consider `C[C@@H]1CN([C@@H](C)CO)C(=O)CCCn2cc(nn2)CO[C@@H]1CN(C)Cc1ccccc1`, for which the viability index is 0.972 ± 0.023.

The molecule `Cc1noc(C)c1NC(=O)N(C)C[C@H]1Oc2cc(C#CCN(C)C)ccc2S(=O)(=O)N([C@H](C)CO)C[C@@H]1C` displayed a viability index of 1.049 ± 0.004.

Take `O=C(C[C@@H]1CC[C@@H]2[C@H](COC[C@@H](O)CN2C(=O)Nc2ccc(Cl)cc2)O1)NCC1CCCCC1`: the viability index is 0.989 ± 0.062.

The molecule `C[C@@H]1CCCCO[C@H](CN(C)Cc2ccc(C(=O)O)cc2)[C@H](C)CN([C@H](C)CO)C(=O)c2cc(N(C)C)ccc2O1` showed a viability index of 1.09 ± 0.014.

Molecule `O=C(C1CCCCC1)N1[C@H](CO)[C@@H]2c3ccccc3NC[C@@H]21` registered a viability index of 1.06 ± 0.043.

`COc1ccccc1-c1ccc([C@H]2[C@@H](CO)N(C(=O)NC3CCCCC3)[C@H]2C#N)cc1` came in with a viability index of 1.07 ± 0.018.

For the molecule `CNC[C@H]1OCCCC[C@@H](C)Oc2ccc(N)cc2C(=O)N([C@@H](C)CO)C[C@@H]1C`, the viability index was 1.15 ± 0.071.

Regarding `C[C@H]1CN([C@@H](C)CO)S(=O)(=O)c2ccc(C#CCC3CCCC3)cc2O[C@H]1CN(C)C(=O)c1cnccn1`, the viability index was 0.864 ± 0.039.

`COc1ccc2c3c([nH]c2c1)[C@@H](CO)N(Cc1nccs1)C[C@]31CCN(CC1)C(=O)C1CCCCC1` gave a viability index of 1.04 ± 0.14.

Molecule `C[C@@H]1CN([C@H](C)CO)C(=O)CCCn2nncc2CO[C@@H]1CN(C)Cc1ccc2c(c1)OCCN2C` returned a viability index of 1.06 ± 0.039.

In turn, `Cc1ccc(CN2CC(=O)N3[C@H](CO)[C@@H](c4ccc(-c5ccccc5F)cc4)[C@@H]3C2)cc1` displayed a viability index of 0.979 ± 0.025.

`Cc1cccc(-c2ccc([C@H]3[C@H]4CN(C(=O)c5ccc6c(c5)OCO6)CC(=O)N4[C@H]3CO)cc2)c1` gave a viability index of 1.05 ± 0.016.

For `C[C@@H]1CN([C@@H](C)CO)C(=O)Cc2cc(NC(=O)CCC(F)(F)F)ccc2O[C@H]1CN(C)CC1CC1`, the viability index turned out to be 0.959 ± 0.12.

`O=C(N[C@@H]1C=C[C@@H](CC(=O)N2CCN(c3ccccc3)CC2)O[C@@H]1CO)c1ccccc1`: the viability index was 1.11 ± 0.12.

As to `C[C@H](CO)N1C[C@H](C)[C@H](CN(C)C(=O)Nc2ccccc2C(F)(F)F)OCc2ccccc2-c2c(n(C)c3ccccc23)C1=O`, the viability index was 0.893 ± 0.091.
